Laboratory results published in patent US20250243260A1 (ALPINE IMMUNE SCIENCES, published 2025).
Changes are numbered by the printed parent chain. Names and notes keep the numbering of the source. Each block holds one binder with its values, some of them ahead of it.

Biological target: CD28 on Jurkat/IL2-reporter cells (UniProt P10747 19-220, limits assumed)
Experiment: cell-based or functional assay

Fold Increase over WT at 50 nM: 3.78 fold | Rel. Luminescence Units (RLU) 2 nM: 5090 RLU | Rel. Luminescence Units (RLU) 10 nM: 6700 RLU | Rel. Luminescence Units (RLU) 50 nM: 9220 RLU | Rel. Luminescence Units (RLU) 250 nM: 13900 RLU
B3: CD80_214 variant CD80 IgV-Fc (E10G, E35G, D46E, M47V, V68M, T101K) (Fc fusion)
chain: VIHVTKEVKGVATLSCGHNVSVEELAQTRIYWQKGKKMVLTMMSGEVNIWPEYKNRTIFDITNNLSIMILALRPSDEGTYECVVLKYEKDAFKREHLAEVKLSVKADGSGGGGS[omitted - human IgG4 Fc with S228P (EU numbers)]

Fold Increase over WT at 50 nM: 1.05 fold | Rel. Luminescence Units (RLU) 2 nM: 2650 RLU | Rel. Luminescence Units (RLU) 10 nM: 2590 RLU | Rel. Luminescence Units (RLU) 50 nM: 2560 RLU | Rel. Luminescence Units (RLU) 250 nM: 3730 RLU
B4: CD80_222 variant CD80 IgV-Fc (E35D, D46Q, L85E) (Fc fusion)
chain: B3 chain with G10E, G35D, E46Q, V47M, M68V, L85E, K101T

Fold Increase over WT at 50 nM: 2.12 fold | Rel. Luminescence Units (RLU) 2 nM: 2450 RLU | Rel. Luminescence Units (RLU) 10 nM: 3240 RLU | Rel. Luminescence Units (RLU) 50 nM: 5180 RLU | Rel. Luminescence Units (RLU) 250 nM: 7780 RLU
B6: CD80_230 variant CD80 IgV-Fc (E10G, Q27F, D46N, A71G, D90G) (Fc fusion)
chain: B3 chain with Q27F, G35E, E46N, V47M, M68V, A71G, D90G, K101T

Fold Increase over WT at 50 nM: 1.75 fold | Rel. Luminescence Units (RLU) 2 nM: 2360 RLU | Rel. Luminescence Units (RLU) 10 nM: 2660 RLU | Rel. Luminescence Units (RLU) 50 nM: 4260 RLU | Rel. Luminescence Units (RLU) 250 nM: 8330 RLU
B8: CD80_217 variant CD80 IgV-Fc (K9N, E10G, Y87K, T101Q) (Fc fusion)
chain: B3 chain with K9N, G35E, E46D, V47M, M68V, Y87K, K101Q

Fold Increase over WT at 50 nM: 1.28 fold | Rel. Luminescence Units (RLU) 2 nM: 2700 RLU | Rel. Luminescence Units (RLU) 10 nM: 2630 RLU | Rel. Luminescence Units (RLU) 50 nM: 3130 RLU | Rel. Luminescence Units (RLU) 250 nM: 6530 RLU
B9: CD80_212 variant CD80 IgV-Fc (K9R, E10A, E35G, V68T, T101K) (Fc fusion)
chain: B3 chain with K9R, G10A, E46D, V47M, M68T

Fold Increase over WT at 50 nM: 1.37 fold | Rel. Luminescence Units (RLU) 2 nM: 2880 RLU | Rel. Luminescence Units (RLU) 10 nM: 3220 RLU | Rel. Luminescence Units (RLU) 50 nM: 3340 RLU | Rel. Luminescence Units (RLU) 250 nM: 4380 RLU
B11: CD80_228 variant CD80 IgV-Fc (E7Q, V11Y, R29H, M47L, V68T) (Fc fusion)
chain: B3 chain with E7Q, G10E, V11Y, R29H, G35E, E46D, V47L, M68T, K101T

Fold Increase over WT at 50 nM: 1.04 fold | Rel. Luminescence Units (RLU) 2 nM: 2420 RLU | Rel. Luminescence Units (RLU) 10 nM: 2350 RLU | Rel. Luminescence Units (RLU) 50 nM: 2540 RLU | Rel. Luminescence Units (RLU) 250 nM: 3780 RLU
B13: CD80_216 variant CD80 IgV-Fc (V11W, T28Y, D46V, R73E, F92L) (Fc fusion)
chain: B3 chain with G10E, V11W, T28Y, G35E, E46V, V47M, M68V, R73E, F92L, K101T

Fold Increase over WT at 50 nM: 1.29 fold | Rel. Luminescence Units (RLU) 2 nM: 3020 RLU | Rel. Luminescence Units (RLU) 10 nM: 3100 RLU | Rel. Luminescence Units (RLU) 50 nM: 3150 RLU | Rel. Luminescence Units (RLU) 250 nM: 5450 RLU
B15: CD80_226 variant CD80 IgV-Fc (K9R, A26T, T28Y, E35A, M47L, A71G) (Fc fusion)
chain: B3 chain with K9R, G10E, A26T, T28Y, G35A, E46D, V47L, M68V, A71G, K101T

The remaining lines, values behind:

B1: CD80_207 variant CD80 IgV-Fc (E35D, V68T, T101K) (Fc fusion)
chain: B3 chain with G10E, G35D, E46D, V47M, M68T
Fold Increase over WT at 50 nM: 0.89 fold | Rel. Luminescence Units (RLU) 2 nM: 2330 RLU | Rel. Luminescence Units (RLU) 10 nM: 2270 RLU | Rel. Luminescence Units (RLU) 50 nM: 2170 RLU | Rel. Luminescence Units (RLU) 250 nM: 2550 RLU

B2: CD80_210 variant CD80 IgV-Fc (E7N, E35D, F59S) (Fc fusion)
chain: B3 chain with E7N, G10E, G35D, E46D, V47M, F59S, M68V, K101T
Fold Increase over WT at 50 nM: 0.96 fold | Rel. Luminescence Units (RLU) 2 nM: 2580 RLU | Rel. Luminescence Units (RLU) 10 nM: 2330 RLU | Rel. Luminescence Units (RLU) 50 nM: 2340 RLU | Rel. Luminescence Units (RLU) 250 nM: 2300 RLU

B5: CD80_208 variant CD80 IgV-Fc (V11Y, E35G, M42G, F59S) (Fc fusion)
chain: B3 chain with G10E, V11Y, M42G, E46D, V47M, F59S, M68V, K101T
Fold Increase over WT at 50 nM: 0.88 fold | Rel. Luminescence Units (RLU) 2 nM: 2450 RLU | Rel. Luminescence Units (RLU) 10 nM: 2210 RLU | Rel. Luminescence Units (RLU) 50 nM: 2160 RLU | Rel. Luminescence Units (RLU) 250 nM: 2230 RLU

B7: CD80_203 variant CD80 IgV-Fc (K9N, E10A, V11W, H18F, T28H, M47L, T62E, R73D) (Fc fusion)
chain: VIHVTKEVNAWATLSCGFNVSVEELAQHRIYWQKEKKMVLTMMSGDLNIWPEYKNRTIFDIENNLSIVILALDPSDEGTYECVVLKYEKDAFKREHLAEVTLSVKADGSGGGGS[omitted - human IgG4 Fc with S228P (EU numbers)]
Fold Increase over WT at 50 nM: 3.62 fold | Rel. Luminescence Units (RLU) 2 nM: 3840 RLU | Rel. Luminescence Units (RLU) 10 nM: 6280 RLU | Rel. Luminescence Units (RLU) 50 nM: 8830 RLU | Rel. Luminescence Units (RLU) 250 nM: 11900 RLU

B10: CD80_167 variant CD80 IgV-Fc (V11Y, M42I, M47V, A71G) (Fc fusion)
chain: B3 chain with G10E, V11Y, G35E, M42I, E46D, M68V, A71G, K101T
Fold Increase over WT at 50 nM: 1.07 fold | Rel. Luminescence Units (RLU) 2 nM: 2330 RLU | Rel. Luminescence Units (RLU) 10 nM: 2670 RLU | Rel. Luminescence Units (RLU) 50 nM: 2620 RLU | Rel. Luminescence Units (RLU) 250 nM: 2870 RLU

B12: CD80-218 variant CD80 IgV-Fc (V11W, T28Y, D46V, V68T, R73T, Y87N) (Fc fusion)
chain: B3 chain with G10E, V11W, T28Y, G35E, E46V, V47M, M68T, R73T, Y87N, K101T
Fold Increase over WT at 50 nM: 1.09 fold | Rel. Luminescence Units (RLU) 2 nM: 2240 RLU | Rel. Luminescence Units (RLU) 10 nM: 2220 RLU | Rel. Luminescence Units (RLU) 50 nM: 2650 RLU | Rel. Luminescence Units (RLU) 250 nM: 3780 RLU

B14: CD80_211 variant CD80 IgV-Fc (V11Y, T28R, E35G, M47L, A71G) (Fc fusion)
chain: B3 chain with G10E, V11Y, T28R, E46D, V47L, M68V, A71G, K101T
Fold Increase over WT at 50 nM: 2.73 fold | Rel. Luminescence Units (RLU) 2 nM: 2740 RLU | Rel. Luminescence Units (RLU) 10 nM: 3250 RLU | Rel. Luminescence Units (RLU) 50 nM: 6660 RLU | Rel. Luminescence Units (RLU) 250 nM: 11200 RLU
